# Laboratory results: PubChem BioAssay AID1347428 (National Center for Advancing Translational Sciences (NCATS), 2020)
# About 290 (0.32%) of roughly 91,000 compounds were called active. This list was built around the results that the source calls inconclusive (neither active nor inactive); the mix of calls is not that of the screen. The call rests on the fitted dose curve; in most records, active means well fitted inhibition curve with a large enough effect; inconclusive means small, poorly fitted or top-dose-only effect; inactive means no such curve, though single readings can be large or run the other way. Where the call is inconclusive, the potency comes from a doubtful curve fit.
# Biological target: Single-stranded DNA cytosine deaminase (Homo sapiens) (UniProt Q9GZX7)
# UniProt Q9GZX7, sequence (Q9GZX7 whole entry, looked up): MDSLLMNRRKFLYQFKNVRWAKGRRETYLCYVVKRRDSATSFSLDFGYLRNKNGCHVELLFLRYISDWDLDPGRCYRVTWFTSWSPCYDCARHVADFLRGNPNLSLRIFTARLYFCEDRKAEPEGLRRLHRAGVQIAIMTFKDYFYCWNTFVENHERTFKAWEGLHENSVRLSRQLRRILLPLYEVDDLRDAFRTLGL
# Assay: Primary qHTS assay for inhibitors of Activation Induced Cytidine Deaminase (AID): AID signal; further: nearly all actives have a fitted effect of over 25% in size
# Conditions: AID deamination FRET fluorescence, UDG-coupled, 4 h; activity change, negative = inhibition: at 115 µM (top of the series)
# On the % scale 0 is the no-effect control and ±100 the full control effect; potency means the concentration at half of the fitted maximal effect; tags describe the fitted curve by direction and shape.
SMILES,"activity change, negative = inhibition",Potency
COc1ccc(-c2nc(C(=O)N3CCN(c4ccc(C(C)=O)cc4)CC3)cs2)cc1OC,inactive: -22.1%,–
COc1ccc(C(CC(=O)NCc2ccccc2Cl)N2Cc3ccccc3C2=O)cc1OC (configuration not stated),–,"inconclusive: 100 µM [inhibitor, single point]"
CCOC(=O)c1sc(CC(=O)Nc2ccc(CC)cc2)nc1C,inactive: 111%,–
COc1ccccc1Cn1cc(C(=O)c2ccc(C)cc2)c(=O)c2cc3c(cc21)OCCO3,–,"inconclusive: 14.1 µM [inhibitor, full curve, poor fit]"
COC(=O)c1ccc(CSc2nnc3ccc4ccccc4n23)cc1,–,"inconclusive: 56.2 µM [inhibitor, partial curve, poor fit]"
CCCOc1ccc(/C=C/C(=O)Nc2cc(C(C)(C)C)ccc2OC)cc1OC,–,"inconclusive: 35.5 µM [inhibitor, partial curve, poor fit]"
CCOC(=O)CSc1nnc2n(-c3ccccc3)c(=O)c3c4c(sc3n12)CC(C(C)(C)C)CC4 (configuration not stated),–,"inconclusive: 35.5 µM [inhibitor, partial curve, poor fit]"
COc1ccccc1CNC(=O)Cn1ncn2c(cc3sccc32)c1=O,–,"inconclusive: 100 µM [inhibitor, partial curve, poor fit]"
COc1ccc(NC(=O)COc2ccc(C(C)C)cc2)c2cccnc12,inactive: -6.68%,–
CCc1ccc(NS(=O)(=O)c2cc(-c3cnc(C4CC4)o3)ccc2C)cc1,inactive: -18.9%,–
COc1ccc2c(c1)Cc1sc(NC(=O)c3cccc(C)c3)nc1-2,–,"inconclusive: 7.94 µM [inhibitor, full curve, poor fit]"
CC(C)c1nn2c(=O)cc(COC(=O)c3cccc(NC(=O)c4cccs4)c3)nc2s1,–,"inconclusive: 17.8 µM [inhibitor, single point]"
Cc1ccc(Nc2nc(NC3CCCCC3)nc3c2cnn3C)c(C)c1,inactive: -22.9%,–
Cc1ccc(OCC(=O)Nc2ccc(Cl)c(-c3nc4ncccc4o3)c2)c(C)c1,–,"inconclusive: 44.7 µM [inhibitor, partial curve, poor fit]"
CCOC(=O)/C(C#N)=C/c1cc(Br)ccc1OCc1c(F)cccc1Cl,inactive: -19.6%,–
Cc1ccc(S(=O)(=O)c2nc(S(C)(=O)=O)sc2N(C)Cc2ccccc2)cc1,–,"inconclusive: 20 µM [inhibitor, full curve, poor fit]"
CCOC(=O)c1cccc(NC(=O)c2cc3c(-c4cccc(OC)c4)nn(C)c3s2)c1,–,"inconclusive: 22.4 µM [inhibitor, full curve, poor fit]"
COc1ccc(CNc2oc(-c3ccco3)nc2C#N)cc1,inactive: -5.97%,–
CCN(C(=S)Nc1cc(S(=O)(=O)N(C)C)ccc1C)c1cccc2ccccc12,–,active: 79.4 µM
CC(C)(CNC(=O)c1nccnc1N)c1ccc(Br)cc1,–,"inconclusive: 79.4 µM [inhibitor, partial curve, poor fit]"
Cc1nc(C(=O)O)ccc1C#N,inactive: 1.79%,–
Clc1ccc(C(c2ccccc2)c2c[nH]c3ccccc23)s1 (configuration not stated),inactive: 8.23%,–
C=CCOc1cccc(C(c2c[nH]c3ccccc23)c2c[nH]c3ccccc23)c1,inactive: 2.58%,–

SMILES,"activity change, negative = inhibition",Potency
COc1ccc(S(=O)(=O)NCC(=O)O)cc1OC,inactive: 0.0779%,–
CCn1cc2nc(SCc3cccc(Cl)c3)n(Cc3ccc(C)cc3)c(=O)c2n1,inactive: -14%,–
Cc1oc2ncnc(N3CCCCC3)c2c1C(=O)N1CCN(c2cccc(Cl)c2)CC1,–,"inconclusive: 56.2 µM [inhibitor, partial curve, poor fit]"
Cc1ccc2c(c1)c(=O)c(C(=O)c1ccc3c(c1)OCO3)cn2Cc1ccc(Cl)cc1,–,"inconclusive: 22.4 µM [inhibitor, full curve, poor fit]"
Cc1nn(C(C)C(=O)N2CCN(c3ccc(Cl)cc3)CC2)c(=O)c2cc3occc3n12 (configuration not stated),–,"inconclusive: 50.1 µM [inhibitor, partial curve, poor fit]"
CCc1ccc(-n2c(=O)c3c4c(sc3n(CC(=O)N3CCC(C)CC3)c2=O)CCC4)cc1,–,"inconclusive: 89.1 µM [inhibitor, partial curve, poor fit]"
CC(C(=O)N(C)CC(=O)Nc1ccccc1C(F)(F)F)N1CCN(c2cccc(Cl)c2)CC1 (configuration not stated),inactive: -8.34%,–
Cc1cccc(N2CCN(C(=O)CN3C(=O)COc4ccc(S(=O)(=O)N5CCCC5)cc43)CC2C)c1 (configuration not stated),–,"inconclusive: 17.8 µM [inhibitor, single point]"
Cn1c(=O)c2c(nc(Cl)n2CC(=O)c2ccc(C(C)(C)C)cc2)n(C)c1=O,–,"inconclusive: 63.1 µM [inhibitor, partial curve, poor fit]"
O=C(CSc1nc2ccccc2s1)Nc1c(F)cccc1F,inactive: -6.15%,–
COc1ccc(-c2nc(Cn3c(SCc4ccccc4F)nc4cccnc43)c(C)o2)cc1,–,"inconclusive: 15.8 µM [inhibitor, full curve, poor fit]"
Cc1cccc(CSc2ccc(-c3cccs3)nn2)c1,–,"inconclusive: 56.2 µM [inhibitor, partial curve, poor fit]"
CCCOc1ccccc1C1C(C(=O)Nc2ccccc2)=C(C)Nc2nnnn21 (configuration not stated),–,"inconclusive: 39.8 µM [inhibitor, single point]"
COC(=O)c1ccc2c(=O)n(CCCCCC(=O)N3CCN(c4ccc(Cl)cc4)CC3)c(=O)[nH]c2c1,–,"inconclusive: 15.8 µM [inhibitor, full curve, poor fit]"
Oc1ccc(N=Cc2ccccc2OCc2ccccc2)cc1,–,active: 14.1 µM
CCn1cc(S(=O)(=O)c2ccc(Cl)cc2)c(=O)c2cc(F)c(N3CCOCC3)cc21,–,"inconclusive: 50.1 µM [inhibitor, partial curve, poor fit]"
Cc1ccc(NC(c2nnc(-c3ccccc3)o2)c2ccccc2F)c(Cl)c1 (configuration not stated),–,"inconclusive: 79.4 µM [inhibitor, partial curve]"
CCOc1ccccc1CNC(=O)c1oc2ccc3c(c2c1C)C(=O)CC(C)(C)O3,–,"inconclusive: 17.8 µM [inhibitor, full curve, poor fit]"
CCCCNc1oc(/C=C/c2cccc(OC)c2)nc1C#N,inactive: -16.4%,–
CCOc1ccccc1Oc1nc(C)nc2c1oc1ccccc12,–,"inconclusive: 44.7 µM [inhibitor, partial curve]"
O=C(O)C/C(=C/c1csc(-c2ccc(F)cc2)n1)c1nc2ccccc2s1,inactive: -18%,–
CC(CNC(=O)CCCn1c(=O)c2cccn2c2ccc(F)cc21)c1ccccc1 (configuration not stated),–,"inconclusive: 56.2 µM [inhibitor, partial curve, poor fit]"
COc1ccc2c(CNCCc3cccs3)c(C(=O)O)n(Cc3cccc(F)c3)c2c1,–,"inconclusive: 79.4 µM [inhibitor, partial curve, poor fit]"

SMILES,"activity change, negative = inhibition",Potency
O=C(CSc1nccn1Cc1ccco1)Nc1cc(C(F)(F)F)ccc1Cl,–,"inconclusive: 56.2 µM [inhibitor, partial curve, poor fit]"
O=C(c1ccc2c(Cl)c3c(nc2c1)CCCC3)N1CCN(c2cccc(C(F)(F)F)c2)CC1,inactive: 10.5%,–
COc1ccccc1NC(=O)c1cn(-c2ccccc2)nc1-c1ccccc1,–,"inconclusive: 17.8 µM [inhibitor, full curve, poor fit]"
CCCCc1cnc2c(c1SCC(=O)Nc1ccccc1C(=O)OCC)c(=O)n(C)c(=O)n2C,inactive: -13.2%,–
CC(C)(C)c1cc(CCC(=O)NC2CC2)cc(C(C)(C)C)c1O,inactive: -6.63%,–
COc1cccc(/C=C/c2nc(C#N)c(NCc3ccco3)o2)c1,inactive: -0.192%,–
CCOc1ccc(C2C(=O)N(C3CCCCC3)CC(=O)N2CCc2ccccc2)cc1OC (configuration not stated),inactive: -1.58%,–
COc1ccc(-c2nn3c(=O)c(NC(=O)c4cccc(C)c4)cnc3o2)cc1,inactive: 8.71%,–
COc1ccc(S(=O)(=O)c2nnn(-c3ccc(C(C)C)cc3)c2C)cc1,–,"inconclusive: 31.6 µM [inhibitor, partial curve, poor fit]"
Cc1ccc(C(=O)Nc2sc3c(c2C(=O)N2CCN(C)CC2)CCCCC3)cc1,inactive: 1.98%,–
O=C(CCc1ncc(-c2ccc(F)cc2)o1)N1CCN(c2ccc([N+](=O)[O-])cc2)CC1,inactive: -4.77%,–
CC1=C(C(=O)Nc2ccc(C)cc2C)C(c2ccc(Br)cc2)n2ncc(C(=O)Nc3cccc(C)c3)c2N1 (configuration not stated),–,"inconclusive: 25.1 µM [inhibitor, partial curve, poor fit]"
Cc1ccc2nc(Cl)c3cc(C(=O)NCCCN(C)Cc4ccccc4)sc3c2c1,–,"inconclusive: 50.1 µM [inhibitor, partial curve, poor fit]"
COc1ccc(C)cc1NC(=O)c1ccccc1OCC(N)=O,inactive: 1.25%,–
Cc1cc(C)c(NC(=O)c2c(C)nn(-c3ccc(F)cc3)c2-n2cccc2)c(C)c1,–,"inconclusive: 11.2 µM [inhibitor, partial curve, poor fit]"
O=C(CCSCc1ccc(Cl)cc1)NCc1ccc(F)cc1Cl,–,"inconclusive: 89.1 µM [inhibitor, partial curve, poor fit]"
COc1ccc(CNC(=O)C(C)c2ccc3cc(OC)ccc3c2)cc1 (configuration not stated),inactive: -4.72%,–
O=C(NCCCc1nc2ccccc2n1Cc1cccc(Cl)c1)c1ccco1,–,"inconclusive: 100 µM [inhibitor, single point]"
CCCCN1CC(c2nc3ccccc3n2CCCCOc2ccc(C)cc2C)CC1=O (configuration not stated),–,"inconclusive: 50.1 µM [inhibitor, partial curve, poor fit]"
CN(Cc1ccccc1Cl)C(=O)c1ccc2c(c1)CCN2S(C)(=O)=O,inactive: -4.55%,–
COc1ccc(NC(=O)CSc2nc3nc(C)c(Cc4ccc(C)cc4)c(C)n3n2)cc1OC,–,"inconclusive: 35.5 µM [inhibitor, partial curve, poor fit]"
